B1: ENSG00000198589:be:win_9001|3pUTR|ENSG00000198589|bound_else_gene|NA|bound_elsewhere_windowed (ssRNA)
RNA: GGGAGUUCUACAGUCCGACGAUCUUCUUCAGCACUAAUAUUUCUGGGAUUUAAAUAGUAAUGUUUAAAUUAUGGUAAAUGUAAUUUAAAACAUCUCAAUUAAGUCUGUCUAUCAAUAUUGUUCUUCAAGCAUGUUUUAGACCUCAACAGAGGAUUGAGCAUCA
B2: chr2:121605696:121605828:-|CDS|ENSG00000074054|unk|total|mutant (ssRNA)
RNA: GGGAGUUCUACAGUCCGACGAUCGACCGACUAUUUCUCAGACAAACAGAAGUCUGCUGACCUUGAGCAUGACCAGACCAUGUCCGAUAAACUUGUGGAUGGACUUGCUACCUCUUGGGUGAACUCCCGCAAUUACAAGGUAAGCAACAGAGGAUUGAGCAUCA
B3: chr2:148946928:148947042:+|CDS|ENSG00000168280|unk|FALSE|bound_elsewhere (ssRNA)
RNA: GGGAGUUCUACAGUCCGACGAUCGAAUGAACACAGCUCUAGAAGUCACAGUAUCUUCCUGAUAAAUAUUAAACAAGAGAAUGUAGAGACUGAAAAAAAACUCAGUGGGAAACUUUAUUUGGUUGAUUUGGCUGGGAGCGAAAACAACAGAGGAUUGAGCAUCA
B4: chrX:71101288:71101389:+|CDS|ENSG00000184481|unk|FALSE|unique (ssRNA)
RNA: GGGAGUUCUACAGUCCGACGAUCGGAGGCCCUGCUCACCUCUGAUACGCCACCACCCCCUGCUGACGUCCUCAUGACCCAGGUAGAUCCCAUUCUGUCCCAGGCUCCGACUCUUCUGUUGCUGGGGGGGCUUCCUUCCUCCAGCAACAGAGGAUUGAGCAUCA
B5: ENSG00000136451:be:win_1551|CDS_3pUTR|ENSG00000136451|bound_else_gene|NA|bound_elsewhere_windowed (ssRNA)
RNA: GGGAGUUCUACAGUCCGACGAUCAUCACCGCCUUGGUAAACAGUAUUAUAAAAUCAAAAUAUGGGUAAAAGUAAAUAUUUACCAGCAACUUAACUUUUAGUUGAUUAAAGCAAAAAGUAAACCAUGAAAUUGGGAGAUUUUAUCAACAGAGGAUUGAGCAUCA
B6: chr4:138169334:138169435:-|3pUTR|ENSG00000151012|msi1|total|mutant (ssRNA)
RNA: GGGAGUUCUACAGUCCGACGAUCCCAUUUCACGCAGAAAAAAAGUCAGCCAGUAAUUAAGAAAAAAAGUGAUGGAGAUUAAGCCGUAUUUUGGCUUAUUUUCCGGACUCAUCAUGAGAAGACACAGUUCCUUUAAUCAGGAAACAACAGAGGAUUGAGCAUCA
B7: chr4:145760401:145760502:-|3pUTR|ENSG00000151612|unk|FALSE|unique (ssRNA)
RNA: GGGAGUUCUACAGUCCGACGAUCUCCGUACUUUUCUCUGAAAGGAAUCUUGUCUUGUUAAACCCUAAAGAGAGUGUCCUUAAUAGCAAUCAGCACUUGUAAGCUUAUAUACUGGUGCAUUUGGUUUUCUGUUGGGUGAAUGCGCAACAGAGGAUUGAGCAUCA
B8: chr22:40826605:40826706:-|CDS|ENSG00000100380|unk|FALSE|bound_elsewhere (ssRNA)
RNA: GGGAGUUCUACAGUCCGACGAUCCACCAAAUUACAGGUCUAAAUAAGAGAUGGAAUUUAGGAUAAUAAACUUACUGACCCAGUAGGACACUUUUUAAAUACUAAUGAACCCUUUCUUUUCAGGAUCCAGAAGUUAUGGUGGCUCAACAGAGGAUUGAGCAUCA
B9: ENSG00000198589:be:win_7851|CDS|ENSG00000198589|bound_else_gene|NA|bound_elsewhere_windowed (ssRNA)
RNA: GGGAGUUCUACAGUCCGACGAUCAAGAUUGAUCCAAGUGGUGUUUGGCCAUUGGGAUGUCGUCACUUGCCUUGCUCGUUCUGAGUCAUAUAUUGGGGGAAAUUGCUACAUUCUCUCAGGGUCACGUGAUGCAACUCUUUUGCUCAACAGAGGAUUGAGCAUCA
B10: ENSG00000111670:stop:overlap|stop_codon|ENSG00000111670|stop_codon|NA|stop_codon (ssRNA)
RNA: GGGAGUUCUACAGUCCGACGAUCGGAAGAUAUUUCCCAGAAGGAGGAUACACAAAGAAGCUAGUCCCAAUCGAAUCAGAGUAUAGAAGAUCUUCAUUUGAAAACCAUCUACCUCAGCAUUUACUGAGCAUUUUAAAACUCAGCCAACAGAGGAUUGAGCAUCA
B11: chr1:228407934:228408200:-|three_prime_utr|ENSG00000162931|control|control|control (ssRNA)
RNA: GGGAGUUCUACAGUCCGACGAUCGGCCUUCUGCUUACUGCAGGCCACCUGCCAGGGUUCUCUGGCAUCACGCUGGCAGCCAUUAGACACACAGGGGGGUUUCUCAAAUUCUAAAUAUAAUUGUGAUUAGAACUGUCAAACAUUCAACAGAGGAUUGAGCAUCA
B12: chr5:24509697:24509799:-|CDS|ENSG00000040731|unk|FALSE|unique (ssRNA)
RNA: GGGAGUUCUACAGUCCGACGAUCACUCGACUAUGAGAGCCGAAGACUUUAUACUCUGAAAGUCGAAGCAGAAAACACCCAUGUAGAUCCCCGUUUUUAUUACCUAGGACCAUUUAAAGAUACUACCAUAGUGAAAAUCUCUAUCAACAGAGGAUUGAGCAUCA
B13: chr1:160214333:160214525:+|3pUTR|ENSG00000162734|msi1|FALSE|unique (ssRNA)
RNA: GGGAGUUCUACAGUCCGACGAUCCUACAGUGUUUUCCUUUGCACCGAUCCCCACCCCAAUUCAAUCCCGGAAGGGACUUACUUAGGAAACCCUUCUUUACUAGAUAUCCUGGCCCCCUGGGCUUGUGAACACCUCCUAGCCACCAACAGAGGAUUGAGCAUCA
B14: ENSG00000070961:be:win_2951|CDS|ENSG00000070961|bound_else_gene|NA|bound_elsewhere_windowed (ssRNA)
RNA: GGGAGUUCUACAGUCCGACGAUCUUUUCAACGAAAUAAAUGCCCGGAAAAUUCAUGGUGAAAGAAAUGUAUUCGAAGGAAUCUUUAACAAUGCCAUCUUCUGCACAAUUGUUUUAGGCACUUUUGUGGUACAGAUAAUAAUUGCAACAGAGGAUUGAGCAUCA

This note sets out measurements from paper PMC12136788.

This is one part of the list.

In the test the target is MSI1 full-length (mouse, UniProt Q61474 1-362). In words: nsRBNS (natural sequence RNA bind-n-seq); RBNS binding buffer (assumed for nsRBNS): 25 mM Tris pH 7.5, 150 mM KCl, 3 mM MgCl2, 0.01% Triton X-100, 500 ug/ml BSA, 20 U/ml SUPERase-In, 4 C; UNK is unkempt and MSI1 is Musashi-1; names of the RNAs are library labels; protein concentration not given here; high values mean tight binding.
Sequence of UniProt Q61474 (Q61474 whole entry): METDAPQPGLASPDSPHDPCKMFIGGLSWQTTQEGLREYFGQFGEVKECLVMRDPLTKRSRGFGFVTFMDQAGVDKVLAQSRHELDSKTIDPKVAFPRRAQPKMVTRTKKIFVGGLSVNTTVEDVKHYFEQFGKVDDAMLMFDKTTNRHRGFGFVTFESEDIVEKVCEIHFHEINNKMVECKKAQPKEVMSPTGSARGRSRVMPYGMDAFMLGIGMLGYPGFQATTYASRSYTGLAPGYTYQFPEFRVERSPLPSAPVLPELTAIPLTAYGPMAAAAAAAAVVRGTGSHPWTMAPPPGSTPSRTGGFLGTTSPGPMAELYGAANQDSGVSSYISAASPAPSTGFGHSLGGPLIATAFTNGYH
For the molecule B1, the binding signal turned out to be 0.954 enrichment R.

B2 showed a binding signal of 0.532 enrichment R. On to B3, for which the binding signal stood at 0.88 enrichment R.

B4 displayed a binding signal of 0.429 enrichment R. In the case of B5, the binding signal was found to be 0.878 enrichment R. As for B6, the binding signal was found to be 0.883 enrichment R. Turning to B7, the binding signal stood at 0.399 enrichment R. The figure for B8 is 0.448 enrichment R. Molecule B9 came in with a binding signal of 0.269 enrichment R. Molecule B10 returned a binding signal of 1.52 enrichment R.

For B11, the binding signal came out at 0.679 enrichment R. The figure for B12 is 3.85 enrichment R; for B13 it is 2.23 enrichment R.

In the case of B14, the binding signal was 0.212 enrichment R.
